In patent US8592383B2, “Cycloalkyl-fused tetrahydroquinolines as CRTH2 receptor modulators” (Merck Sharp & Dohme Corp., priority 2011, dated 2013):

These compounds were tested against T1, hCRTH2 (Homo sapiens, UniProt Q9Y5Y4) (assay: biochemical). Settings: Ki (nM), Table A; Radioligand Binding Assay A, [3H]PGD2, HEK-hCRTH2 membranes.
T1 sequence (Q9Y5Y4 1-395): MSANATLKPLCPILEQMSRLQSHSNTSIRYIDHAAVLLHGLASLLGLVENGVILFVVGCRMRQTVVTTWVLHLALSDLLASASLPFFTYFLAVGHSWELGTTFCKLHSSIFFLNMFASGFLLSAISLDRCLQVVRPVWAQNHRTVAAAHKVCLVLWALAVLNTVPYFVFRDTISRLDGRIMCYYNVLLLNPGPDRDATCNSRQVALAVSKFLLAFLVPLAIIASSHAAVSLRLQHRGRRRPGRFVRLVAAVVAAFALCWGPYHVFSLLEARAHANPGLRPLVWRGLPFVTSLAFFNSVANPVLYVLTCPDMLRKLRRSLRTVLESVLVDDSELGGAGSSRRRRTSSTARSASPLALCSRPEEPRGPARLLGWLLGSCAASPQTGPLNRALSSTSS
O=C(O)CCC(=O)N(C1CC1)C1c2ccc(Cl)cc2N(C(=O)c2ccc(F)cc2)C2CCCC21 (single isomer, unassigned) [17CV, 4-[[cis,cis-6-chloro-4-(4-fluorobenzoyl)-2,3,3a,4,9,9a-hexahydro-1H-cyclopenta[b]quinolin-9-yl]cyclopropylamino]-4-oxobutanoic acid] was tested, and the Ki was 1 to 5 nM.
CC12CCCC1N(C(=O)OCc1ccccc1)c1ccccc1C2N(CCCC(=O)O)C1CC1 (single isomer, unassigned) [compound 161, 4-((cis, cis-4-((benzyloxy)carbonyl)-9a-methyl-2,3,3a,4,9,9a-hexahydro-1H-cyclopenta[b]quinolin-9-yl)(cyclopropyl)amino) butanoic acid] showed a Ki of 20.1 to 200 nM.
CCC[C@@H](OC(=O)N1c2ccccc2C(N(C(=O)CCC(=O)O)C2CC2)C2CCCC21)c1ccccc1 (single isomer, unassigned) [compound 137] gave a Ki of 20.1 to 200 nM.
Work on O=C(O)CCCN(CC1CC1)C1c2ccccc2N(C(=O)c2ccc(OC(F)(F)F)cc2)C2CCCC12 (racemic) [44F, 4-[(cyclopropylmethyl)[cis,cis-2,3,3a,4,9,9a-hexahydro-4-[4-(trifluoromethoxy)benzoyl]-1H-cyclopenta[b]quinolin-9-yl]amino]butanoic acid] yielded a Ki of 20.1 to 200 nM.
Work on O=C(O)CCC(=O)N(C1CC1)C1c2ccccc2N(C(=O)O[C@@H](c2ccccc2)C(F)(F)F)C2CCCC21 (single isomer, unassigned) [compound 77] yielded a Ki of 20.1 to 200 nM.
In the case of O=C(O)CCC(=O)N(C1CC1)C1c2ccccc2N(C(=O)c2cccc(-c3cncs3)c2)C2CCCC21 (single isomer, unassigned) [18S, 4-[cyclopropyl[cis, cis-2,3,3a,4,9,9a-hexahydro-4-[3-(5-thiazolyl)benzoyl]-1H-cyclopenta[b]quinolin-9-yl]amino]-4-oxobutanoic acid], the Ki is reported as 5.1 to 20 nM.
O=C(O)CCCN(C1CC1)C1c2ccc(F)cc2N(C(=O)OCc2ccccc2)C2CCC21 (single isomer, unassigned) [43B, 4-((cis, cis-3-(benzyloxycarbonyl)-5-fluoro-1,2,2a,3,8,8a-hexahydrocyclobuta[b]quinolin-8-yl)(cyclopropyl)amino) butanoic acid] gave a Ki of 1 to 5 nM.
COc1ccc(S(=O)(=O)N2c3ccccc3C(N(C(=O)CCC(=O)O)C3CC3)C3CCCC32)cc1 (racemic) [24C, 4-[cyclopropyl[cis,cis-2,3,3a,4,9,9a-hexahydro-4-[(4-methoxyphenyl)sulfonyl]-1H-cyclopenta[b]quinolin-9-yl]amino]-4-oxobutanoic acid] was tested, and the Ki was 20.1 to 200 nM.
COc1ncc(-c2cccc(C(=O)N3c4ccccc4C(N(C(=O)CCC(=O)O)C4CC4)C4CCCC43)c2)s1 (racemic) [18K, 4-[cyclopropyl[cis,cis-2,3,3a,4,9,9a-hexahydro-4-[3-(2-methoxy-5-thiazolyl)benzoyl]-1H-cyclopenta[b]quinolin-9-yl]amino]-4-oxobutanoic acid] gave a Ki of 5.1 to 20 nM.
CC[C@H](OC(=O)N1c2ccccc2C(N(C(=O)CCC(=O)O)C2CC2)C2CCCC21)c1ccccc1 (single isomer, unassigned) [compound 139] was tested, and the Ki was 5.1 to 20 nM.
For COc1ccc(C(C)OC(=O)N2c3ccccc3C(N(C(=O)CCC(=O)O)C3CC3)C3CCCC32)cc1 (racemic) [compound 143, 4-[1-(4-methoxyphenyl)ethyl] cis, cis-[(3-carboxy-1-oxopropyl)cyclopropylamino]-1,2,3,3a,9,9a-hexahydro-4H-cyclopenta[b]quinoline-4-carboxylate], the Ki was 20.1 to 200 nM.
With O=C(O)CCC(=O)N(C1CC1)C1c2ccccc2N(C(=O)c2ccc(F)cc2F)C2CCCC21 (racemic) [17BC, 4-(cyclopropyl(cis,cis-4-(2,4-difluorobenzoyl)-2,3,3a,4,9,9a-hexahydro-1H-cyclopenta[b]quinolin-9-yl)amino)-4-oxobutanoic acid] the Ki was 20.1 to 200 nM.
With O=C(O)CCC(=O)N(C1CC1)C1c2ccccc2N(C(=O)c2cccc3ccccc23)C2CCCC21 (racemic) [17BG, 4-((cis,cis-4-(1-naphthoyl)-2,3,3a,4,9,9a-hexahydro-1H-cyclopenta[b]quinolin-9-yl)(cyclopropyl)amino)-4-oxobutanoic acid] the Ki was 5.1 to 20 nM.
With CC(C)N(C(=O)CCC(=O)O)C1c2ccccc2N(C(=O)c2ccc(OC(F)(F)F)cc2)C2CCCC21 (racemic) [17T, 4-[[cis,cis-2,3,3a,4,9,9a-hexahydro-4-[4-(trifluoromethoxy)benzoyl]-1H-cyclopenta[b]quinolin-9-yl](1-methylethyl)amino]-4-oxobutanoic acid] the Ki was 20.1 to 200 nM.
CC(OC(=O)N1c2ccccc2C(N(C(=O)CCC(=O)O)C2CC2)C2CCCC21)c1ccc(OC(F)(F)F)cc1 (racemic) [compound 140, 4-[1-[4-(trifluoromethoxy)phenyl]ethyl] cis, cis-[(3-carboxy-1-oxopropyl)cyclopropylamino]-1,2,3,3a,9,9a-hexahydro-4H-cyclopenta[b]quinoline-4-carboxylate] showed a Ki of 20.1 to 200 nM.
For CC(C)N(C(=O)CCC(=O)O)C1c2ccccc2N(C(=O)c2ccccc2)C2CCCC21 (racemic) [17M, 4-[[cis,cis-4-benzoyl-2,3,3a,4,9,9a-hexahydro-1H-cyclopenta[b]quinolin-9-yl](1-methylethyl)amino]-4-oxobutanoic acid], the Ki was 20.1 to 200 nM.
In the case of CCN(C(=O)CCC(=O)O)C1c2ccccc2N(C(=O)c2cc(F)cc(F)c2)C2CCCC12 (single isomer, unassigned) [compound 64], the Ki is reported as 5.1 to 20 nM.
CCN(C(=O)CCC(=O)O)C1c2ccccc2N(C(=O)OCc2ccc(SC)cc2)C2CCC12 (single isomer, unassigned) [compound 93, 4-(ethyl(cis, cis-3-((4-(methylthio)benzyloxy)carbonyl)-1,2,2a,3,8,8a-hexahydrocyclobuta[b]quinolin-8-yl)amino)-4-oxobutanoic acid] gave a Ki of 20.1 to 200 nM.
O=C(O)COC(=O)N(C1CC1)[C@@H]1c2ccccc2N(c2nnc(-c3cccc(OC(F)(F)F)c3)o2)[C@@H]2CCC[C@@H]21 (racemic) [compound 38, [[[Cyclopropyl[cis,cis-2,3,3a,4,9,9a-hexahydro-4-[5-[3-(trifluoromethoxy)phenyl]-1,3,4-oxadiazol-2-yl]-1H-cyclopenta[b]quinolin-9-yl]amino]carbonyl]oxy]acetic acid] showed a Ki of 20.1 to 200 nM.
Compound O=C(O)COC(=O)N(C1CC1)C1c2ccccc2N(C(=O)OCc2ccc(F)cc2F)C2CCCC21 (single isomer, unassigned) [22D, 4-[(2,4-difluorophenyl)methyl] cis, cis-[[(carboxymethoxy)carbonyl]cyclopropylamino]-1,2,3,3a,9,9a-hexahydro-4H-cyclopenta[b]quinoline-4-carboxylate] has a Ki of 1 to 5 nM.
In the case of O=C(O)CCC(=O)N(C1CC1)C1c2ccccc2N(C(=O)COc2ccccc2)C2CCCC21 (racemic) [17BB, 4-(cyclopropyl(cis,cis-4-(2-phenoxyacetyl)-2,3,3a,4,9,9a-hexahydro-1H-cyclopenta[b]quinolin-9-yl)amino)-4-oxobutanoic acid], the Ki is reported as 20.1 to 200 nM.
O=C(O)CCC(=O)N(C1CC1)C1c2cc(F)c(F)cc2N(C(=O)OCc2ccccc2)C2CCC21 (single isomer, unassigned) [compound 116, 3-(phenylmethyl) 8-[(3-carboxy-1-oxopropyl)cyclopropylamino]-5,6-difluoro-2,2a,8,8a-tetrahydro-cyclobuta[b]quinoline-3(1H)-carboxylate] gave a Ki of 1 to 5 nM.
